Results from PubChem BioAssay AID485344 (National Center for Advancing Translational Sciences (NCATS), 2010).
Screen size: about 340,000 compounds; about 6,900 (2%) were called active. Cut-off read from the data, not from the text of the source: active = inhibition above about 30%; inactive = below that, where a call was filed. This is a selection; strong and weak results do not stand in their true shares. The source gives no active or inactive call for entries shown without one.
Note: 0% is about no effect.

What follows are compounds tested against D(2) dopamine receptor (Homo sapiens) (UniProt P14416) (assay: HTS Assay for Allosteric Antagonists of the Human D2 Dopamine Receptor: Primary Screen for Antagonists). Details: HEK293 TREx D2 cells, calcium flux, dopamine EC80; at 10 µM; stronger effect = higher value.
Chain of UniProt P14416 (P14416 whole entry, looked up): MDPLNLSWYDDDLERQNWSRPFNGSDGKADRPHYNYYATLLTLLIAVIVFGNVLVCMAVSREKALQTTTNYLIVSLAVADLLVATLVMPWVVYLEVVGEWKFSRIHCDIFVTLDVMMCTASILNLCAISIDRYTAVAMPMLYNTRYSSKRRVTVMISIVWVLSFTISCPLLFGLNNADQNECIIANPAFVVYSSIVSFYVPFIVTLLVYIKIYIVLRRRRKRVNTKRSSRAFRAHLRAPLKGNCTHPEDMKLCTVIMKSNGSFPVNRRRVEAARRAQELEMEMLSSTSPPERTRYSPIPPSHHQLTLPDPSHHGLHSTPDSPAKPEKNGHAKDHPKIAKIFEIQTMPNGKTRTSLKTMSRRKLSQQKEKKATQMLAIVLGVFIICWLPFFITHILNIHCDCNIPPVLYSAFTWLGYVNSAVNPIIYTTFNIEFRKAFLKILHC
Outline: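 Cells plated overnight at 30 C with tetracycline; no-wash calcium dye, 30–90 min RT; 10 s baseline; compound pinned; 180 s read; EC80 dopamine added; another 180 s read.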
`CCc1cccc(NC(=O)c2cc(-c3ccccc3)n[nH]2)c1` gave an inhibition of -22.3%. `COc1cccc(OCCCn2c(-c3ccc(Cl)cc3)nc3ccccc3c2=O)c1` gave an inhibition of -2.01%. `Cc1nnc(N2CCN(c3ccc(Cl)cc3)CC2)c2c1nnn2Cc1ccc(F)cc1` was tested, and the inhibition was 2.78%. In the case of `CC(C)C(=O)NC1CC(=O)N(c2ccc3c(c2)OCCO3)C1` (stereo unspecified), the inhibition is reported as -14.9%. `COc1ccccc1Cn1ccn(CC(=O)Nc2c(C)cc(C)cc2C)c(=O)c1=O` was tested, and the inhibition was 10.2%. In the case of `COc1cccc(C(c2sc3nc(-c4ccco4)nn3c2O)N2CCCC2)c1` (stereo unspecified), the inhibition is reported as 25.9%. `Cc1c(C(=O)Nc2cccc(F)c2)sc2nc(-c3cc4ccccc4oc3=O)[nH]c(=O)c12` gave an inhibition of -10.8%. `COc1ccc(NC(=O)c2c(NCc3cccs3)sc3c2CCCCC3)cc1` showed an inhibition of 13.6%. Work on `CN(C1CCCCC1)S(=O)(=O)c1ccc(F)c(C(=O)Nc2ccc(C(F)(F)F)cc2)c1` yielded an inhibition of 5.77%. With `Cc1ccc(-n2nc(C)c3c(C)cc(=O)n(CC(=O)Nc4ccc(C(C)C)cc4)c32)cc1` the inhibition was 7.49%. With `CCc1ccc(NC(=O)C(=O)NCCc2sc(-c3ccc(OC)c(OC)c3)nc2C)cc1` the inhibition was 4.58%. Compound `CC1CCCCN1C(=O)c1ccc2c(c1)N(Cc1ccc(Cl)cc1)C(=O)c1ccccc1S2=O` (stereo unspecified) has an inhibition of -5.83%. Work on `CCc1ccc(NC(=O)CSc2nc(-c3ccccc3)no2)cc1` yielded an inhibition of -4.61%. Work on `CN(C)S(=O)(=O)N(CC(=O)Nc1ccc(Br)cc1F)c1ccccc1` yielded an inhibition of -1.99%. For `O=C(c1ccc(Br)o1)N1CCN(Cc2ccc3c(c2)OCO3)CC1`, the inhibition was active: 58.4%. `O=C(Cn1c(SCCOc2ccccc2Cl)nc2ccccc21)N1CCOCC1` gave an inhibition of 6.89%. With `Fc1ccccc1N1CCN(c2nnc(C(F)(F)F)c3nnn(Cc4ccccc4)c23)CC1` the inhibition was 3.53%. For `COc1ccc2c(CNCc3ccco3)c(C(=O)O)n(Cc3ccc(F)cc3Cl)c2c1`, the inhibition was -16.1%. For `COCCNC(=O)CSc1nc2cc3c(cc2c(=O)n1CCCC(=O)NCCc1ccc(OC)c(OC)c1)OCO3`, the inhibition was -23.9%. `CCC(CC)C(=O)Nc1nnc(SCc2cc(=O)c3ccccc3[nH]2)s1` was tested, and the inhibition was 11.7%. For `CCC(C)(C)NC(=O)C1CCC(CNS(=O)(=O)c2ccc3c(c2)CC(C)N3C(C)=O)CC1` (stereo unspecified), the inhibition was -4.89%. Work on `CCCCNC(=O)CCCN1C(=O)CCn2nc(-c3cccn3C)cc21` yielded an inhibition of -5.38%. Compound `COc1cccc(NC(=O)Cn2c(=O)n(-c3cccc(OC)c3)c(=O)c3sc4ccccc4c32)c1` has an inhibition of 0.811%. Work on `Cc1ccc(Cl)cc1N1CCN(C2(c3ccccc3)C(=O)c3ccccc3C2=O)CC1` yielded an inhibition of 6.25%. `COc1ccc(C)cc1NC(=O)C1CCCN(S(=O)(=O)c2ccc3c(c2)CCCN3C(C)=O)C1` (stereo unspecified) was tested, and the inhibition was 4.92%. `CCC(C)NS(=O)(=O)c1ccc(N2CCCCS2(=O)=O)cc1` (stereo unspecified) showed an inhibition of 9.19%. `COc1cccc2c1cc1c(=O)n(CC(=O)N3CCCCC3)nc(C)n12` showed an inhibition of 14.9%. `Cc1ccc(C(=O)Nc2ccc(C(=O)O)cc2)cc1S(=O)(=O)Nc1ccccc1` gave an inhibition of -10.8%. In the case of `Cc1ccc(-n2c3c(c(=O)[nH]c2=O)C(NS(=O)(=O)c2ccc(Cl)cc2)(C(F)(F)F)C(=O)N3)cc1` (stereo unspecified), the inhibition is reported as -9.82%. `NC(=O)C1CCN(c2ncnc3c2cnn3-c2ccccc2)CC1` gave an inhibition of -1.34%. `Fc1cccc(NCc2ccccc2-c2nnc(-c3ccccc3Cl)o2)c1` showed an inhibition of 27.8%. Work on `CCOC(=O)c1[nH]c2ccccc2c1NC(=O)c1ccccc1F` yielded an inhibition of 13.4%. With `Cc1oc2ncnc(N3CCCCC3)c2c1C(=O)NCC1CCN(Cc2cccc(F)c2)CC1` the inhibition was -14.8%. `CCN1CCN(CCCNC(=O)CS(=O)(=O)Cc2nc(-c3cccc(OC)c3)oc2C)CC1` showed an inhibition of -1.83%. For `O=C(NCCc1ccccc1)C(=O)NCC(c1ccco1)S(=O)(=O)c1cccs1` (stereo unspecified), the inhibition was 22.4%. `COc1ccc(-c2nc(CSc3nncn4c3cc3oc(C)cc34)c(C)o2)cc1` gave an inhibition of -5.23%. With `Cc1ccc(-n2nnc(-c3nc(-c4cccs4)no3)c2N)cc1C` the inhibition was 7.29%. Compound `COc1ccc(OC)c(CCNC(=O)c2ccc3c(c2)c(C)c(C)n3Cc2ccccc2)c1` has an inhibition of -0.342%. Compound `COc1cc(NC(=O)CN2C(=O)c3ccccc3Sc3ccc(C(=O)N4CCCC4)cc32)cc(OC)c1` has an inhibition of 16.2%. For `CCOC(=O)c1ccccc1NC(=O)CN1CCCN(Cc2cc(C)ccc2C)S1(=O)=O`, the inhibition was -3.27%. `O=C(Cc1cccs1)N(CC1CCCO1)C1(C(=O)NC2CCCCC2)CCCCC1` (stereo unspecified) was tested, and the inhibition was active: 34%. `CCc1cccc(C)c1NC(=O)CCS(=O)(=O)c1cc(Br)cc2c1N(C(=O)C1CC1)CC2` showed an inhibition of -1.09%. In the case of `CCCc1nn2c(=O)cc(COC(=O)c3cccc(NC(=O)c4cccs4)c3)nc2s1`, the inhibition is reported as -8.21%. Work on `COc1ccc(C(=O)NCC(c2cccnc2)N2CCN(c3ccccc3)CC2)cc1` (stereo unspecified) yielded an inhibition of -4.06%. With `O=S(=O)(/C=C/c1ccccc1)Nc1ccc2c(c1)OCO2` the inhibition was active: 34.3%. With `COc1cccc(Cn2c(=O)cc(C)c3c(C)nn(C)c32)c1` the inhibition was 0.142%. Compound `Cc1c(C(=O)NCc2ccc(Cl)cc2)sc2nc3n(c(=O)c12)CCCCC3` has an inhibition of 13.1%. `COc1ccc(S(=O)Cc2ccc(C(=O)N3CCN(c4cccc(C)c4C)CC3)o2)cc1` (stereo unspecified) showed an inhibition of 6.98%. For `Cc1c(Cl)cccc1NC(=O)Cn1c(=O)n(Cc2ccco2)c(=O)c2sc3ccccc3c21`, the inhibition was 4.84%. `CCc1nn2c(-c3ccccc3OC)ccnc2c1-c1ccccc1` showed an inhibition of 11.5%. Compound `O=C(CCCCn1c(=O)c2ccccc2n(CC(=O)Nc2cccc(C(F)(F)F)c2)c1=O)NCc1ccc2c(c1)OCO2` has an inhibition of -13.2%. `CCC(CC)c1nn2c(=O)cc(COc3ccc(NC(=O)c4ccccc4C)cc3)nc2s1` gave an inhibition of -2.3%. Compound `COc1cc(NS(=O)(=O)c2ccc(NC(=O)c3cccc(F)c3)cc2)nc(OC)n1` has an inhibition of 5.21%. `Cc1ccccc1NC(=O)c1ccc2[nH]c(C)c(C)c2c1` showed an inhibition of -0.15%. For `COc1cc(NC(=O)CC2C(=O)OCCN2Cc2ccccc2)cc(OC)c1` (stereo unspecified), the inhibition was -10.9%. `CCC1CN(S(=O)(=O)c2cc(-c3cc(C)no3)ccc2C)c2cc(Cl)ccc2O1` (stereo unspecified) was tested, and the inhibition was 2.28%. Work on `Cc1ccccc1Nc1c(-c2ccc(Cl)cc2)nc2c(C)cccn12` yielded an inhibition of 0.0991%. Work on `CC(C)c1ccc(NC(=O)C2CCN(S(=O)(=O)c3cccc4nonc34)CC2)cc1` yielded an inhibition of -5.83%. For `COc1ccc(NC(=O)Cn2c(=O)n(CCc3ccccc3)c(=O)c3c4c(sc32)CCCC4)cc1`, the inhibition was -6.98%. Compound `Cc1ccc(N2C(=O)CSC23C(=O)N(Cc2ccccc2F)c2ccccc23)cc1F` (stereo unspecified) has an inhibition of 6.49%. For `CCOC(=O)c1c(NC(=O)c2nc(SCC)ncc2Cl)sc2c1CCCC2`, the inhibition was -2.06%.
